Reference: PubChem BioAssay AID624330 (Southern Research Specialized Biocontainment Screening …, 2012)
Among all 340,000 compounds or so, about 2,100 (0.62%) were called active. The inconclusive results got no clear call from the source; some entries with a clear call stand among them for comparison.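 Rule for the calls: active = first-screen hits whose inhibition reached a set limit at any dose in the follow-up dose series; inconclusive = inhibition above the set first-screen limit but never retested; inactive = the rest.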

biological target: Rac GTPase-activating protein 1 (Homo sapiens) (UniProt Q9H0H5); assay: blockers of MgcRacGAP-driven Rac1 GTP hydrolysis – biochemical, ADP Hunter fluorescence, primary and confirmatory, confirmation (AID 624330); conditions: MgcRacGAP-stimulated Rac1 GTP hydrolysis, at 30 µM, hits give high values, GST-tagged Rac1 F28L mutant substrate;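 note: fluorescence reports GDP produced by GAP-driven GTP hydrolysis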
Chain of UniProt Q9H0H5 (Q9H0H5 whole entry, looked up): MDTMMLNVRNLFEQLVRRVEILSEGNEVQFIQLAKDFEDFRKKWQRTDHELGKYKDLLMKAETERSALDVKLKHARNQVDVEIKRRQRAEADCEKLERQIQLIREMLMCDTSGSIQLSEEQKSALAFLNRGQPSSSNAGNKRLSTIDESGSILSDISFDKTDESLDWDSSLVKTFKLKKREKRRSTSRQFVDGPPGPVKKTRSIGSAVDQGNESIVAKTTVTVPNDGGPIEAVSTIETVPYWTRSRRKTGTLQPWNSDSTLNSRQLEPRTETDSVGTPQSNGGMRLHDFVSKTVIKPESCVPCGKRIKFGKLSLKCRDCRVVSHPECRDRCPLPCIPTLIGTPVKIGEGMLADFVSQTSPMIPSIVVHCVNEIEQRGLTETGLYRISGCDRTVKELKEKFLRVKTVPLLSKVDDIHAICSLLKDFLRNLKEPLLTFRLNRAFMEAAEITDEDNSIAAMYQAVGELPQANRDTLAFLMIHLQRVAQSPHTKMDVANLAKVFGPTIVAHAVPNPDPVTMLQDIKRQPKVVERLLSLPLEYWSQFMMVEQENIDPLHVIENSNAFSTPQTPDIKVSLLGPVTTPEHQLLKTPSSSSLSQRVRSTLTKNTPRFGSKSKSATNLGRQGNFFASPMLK

Q: How did the inhibition turn out when `Cc1ccc2nc(-c3ccc(O)cc3)c(Nc3ccc4c(c3)OCCO4)n2c1` was run?
A: Its inhibition is inconclusive: 35.1%.

Q: `CC1CCN(CCCn2c(=S)[nH]c3c(sc4ccccc43)c2=O)CC1` was tested. Which inhibition did it give?
A: Its inhibition is inconclusive: 33.4%.

Q: `COc1ccc(-n2nnnc2SCC(=O)c2ccc(O)c(O)c2)cc1` was tested. Which inhibition did it give?
A: Its inhibition is inactive: 9.34%.

Q: Which inhibition does the source give for `CC(C(=O)NCCN1CCOCC1)(c1ccccc1)c1ccccc1` here?
A: Its inhibition is inactive: 9.67%.

Q: `CC(C(=O)Nc1ccc(N(C)C)cc1)N1C(=O)c2ccccc2S1(=O)=O` (stereo unspecified) was tested. Which inhibition did it give?
A: Its inhibition is inconclusive: 69.8%.

Q: `CNC(=O)c1nnsc1S(=O)c1ccc(Cl)cc1` (stereo unspecified) was tested. Which inhibition did it give?
A: Its inhibition is inconclusive: 58.9%.

Q: With `Cc1cc(C)c(C)c(OCCOCCNCc2ccccc2)c1` as the molecule, how does the inhibition read?
A: Its inhibition is inactive: 17.1%.

Q: With `COc1ccc(/C=N/NC(=O)COc2cccc3cccnc23)cc1OC` as the molecule, how does the inhibition read?
A: Its inhibition is inactive: 12%.

Q: For `O=C1CC(/C=C/c2ccccn2)=Nc2ccccc2N1`, which inhibition is on record?
A: Its inhibition is inactive: -8.85%.

Q: With `COc1cc(/C(C)=N/NC(=O)CN2CCN(S(=O)(=O)c3ccc(C)cc3)CC2)ccc1O` as the molecule, how does the inhibition read?
A: The inhibition was inconclusive: 34.7%.

Q: For `CCc1cc(N2CCOCC2)cc2c1[nH]c1ccccc12`, which inhibition is on record?
A: The inhibition was inconclusive: 101%.

Q: How did the inhibition turn out when `CC1C(=O)NN=C1C(=O)N/N=C/c1ccco1` (stereo unspecified) was run?
A: Its inhibition is inactive: 14.2%.

Q: How did the inhibition turn out when `Clc1cc(Br)ccc1OCCOCCN1CCOCC1` was run?
A: Its inhibition is inconclusive: 38.5%.

Q: For `COc1cc(/C=N/NC(=O)c2cccc(NC(=O)c3ccccc3)c2)ccc1O`, which inhibition is on record?
A: Its inhibition is inconclusive: 62%.

Q: With `CCS(=O)(=O)C1=NN2C(=N)/C(=C\c3ccc(OC(=O)c4ccco4)c(OC)c3)C(=O)N=C2S1` as the molecule, how does the inhibition read?
A: The inhibition was inactive: 30.5%.

Q: With `Nc1c(C(=O)NC2CC2)sc2nc3c(c(-c4ccco4)c12)CC/C3=C/c1ccco1` as the molecule, how does the inhibition read?
A: Its inhibition is inconclusive: 68.8%.

Q: For `CCOC(=O)C(OC(=O)c1sc(=S)n(C)c1C)C(C)=O` (stereo unspecified), which inhibition is on record?
A: Its inhibition is inconclusive: 36%.

Q: How did the inhibition turn out when `CCOc1ccc(OCCn2c(=S)[nH]c3c(N)ncnc32)cc1` was run?
A: Its inhibition is inconclusive: 33.9%.

Q: For `CN(C)c1ccc(NC(=O)CSc2nnc(C3CCCCC3)n2N)cc1`, which inhibition is on record?
A: Its inhibition is inconclusive: 76.3%.

Q: Which inhibition does the source give for `O=C(/C=C/Nc1ccc(F)cc1)c1ccc(Oc2ncccn2)cc1` here?
A: The inhibition was inactive: 10.5%.

Q: How did the inhibition turn out when `CC(C)(C)n1cnc2cc(NCc3ccccc3O)ccc21` was run?
A: The inhibition was inactive: 13.7%.

Q: `Oc1ccccc1Nc1nc(NCc2ccccc2)c2ccccc2n1` was tested. Which inhibition did it give?
A: Its inhibition is inconclusive: 34.1%.

Q: `N#Cc1c2ccc(O)cc2n2ccccc12` was tested. Which inhibition did it give?
A: The inhibition was inconclusive: 152%.

Q: How did the inhibition turn out when `COc1cccc(C(=O)NCCS(=O)(=O)N2CCC3(CC2)OCCO3)c1` was run?
A: The inhibition was inactive: 6.03%.

Q: How did the inhibition turn out when `COc1ccccc1CNc1ccc(N2CCCCC2)cc1` was run?
A: The inhibition was inconclusive: 91.2%.

Q: `CCN1C(=O)/C(=C/c2ccc(N3CCCC3)cc2)NC1=S` was tested. Which inhibition did it give?
A: Its inhibition is inconclusive: 32%.
